{"source": "PubChem BioAssay AID686979", "about": "(National Center for Advancing Translational Sciences (NCATS), 2013)", "note": "Hit rate of the full screen: of about 420,000 compounds, about 50,000 (12%) were called active. Inconclusive means that the source gave no clear call. Such entries were picked first, then a sample of the others. Calls come from the whole dose curve; as a rule, active = well fitted inhibition curve with a large enough effect; inconclusive = small, poorly fitted or top-dose-only effect; inactive = flat fitted curve, though single readings scatter. Potencies of inconclusive entries are left out as doubtful fits."}
{"experiment": "qHTS for Inhibitors of human tyrosyl-DNA phosphodiesterase 1 (TDP1): qHTS in cells in presence of CPT; note: nearly all actives have a fitted effect of over 55% in size; note: potency is the fitted concentration of half-maximal effect; tags give direction and shape of the fitted curve", "settings": "chicken DT40 Tdp1-/-;hTDP1 cells + 20 nM CPT, ATP luminescence, 48 h; series mostly up to 46.2 µM", "method_in_brief": "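Chicken DT40 Tdp1-/- cells stably complemented with human TDP1 were seeded at 400 cells/well in medium containing 20 nM camptothecin, exposed to pin-transferred compounds, and grown at 37 °C for at least 48 hr. Viability was read as ATP luminescence.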"}
{"compound": "CC(C)(C)NC(=O)C(c1ccccc1F)N(Cc1ccco1)C(=O)c1csnn1", "note": "(stereo not given)", "Potency": "inconclusive [inhibitor, full curve, poor fit]"}
{"compound": "O=C(Nc1nnc(-c2ccc(Cl)cc2)o1)c1nc2ccccc2s1", "Potency": "inconclusive [inhibitor, single point]"}
{"compound": "C/C(=N\\Nc1nncc2ccccc12)c1ccc(OCC(=O)N(C)C)cc1", "Potency": "inconclusive [inhibitor, single point]"}
{"compound": "CC1CC(C)CN(C(=O)c2ccc3ccccc3c2)C1", "note": "(stereo not given)", "Potency": "inconclusive [inhibitor, single point]"}
{"compound": "COc1ccc(CC(=O)NCC(c2ccc(N(C)C)cc2)N2CCOCC2)cc1OC", "note": "(stereo not given)", "Potency": "inconclusive [inhibitor, single point]"}
{"compound": "S=C(Nc1cccc(Cl)c1)Nc1ccc2c(c1)OCCO2", "Potency": "inactive"}
{"compound": "Cc1ccccc1OCc1ccc(-c2nc(C#N)c(N3CCCCC3)o2)o1", "Potency": "inconclusive [inhibitor, single point]"}
{"compound": "CCC(C)(C)c1ccc(OCCCC[n+]2ccc(C)cc2)c(C(C)(C)CC)c1", "Potency": "active: 2.31 µM"}
{"compound": "Cc1cc(C)cc(OC2CCCCC2NS(=O)(=O)c2ccccc2)c1", "note": "(stereo not given)", "Potency": "inconclusive [inhibitor, single point]"}
{"compound": "COc1ccc(OC)c(Nc2nc(N)c([N+](=O)[O-])c(NCc3ccccc3)n2)c1", "Potency": "inconclusive [inhibitor, partial curve]"}
{"compound": "Brc1cc2c(cc1C1Nc3ccccc3C3C=CCC31)OCO2", "note": "(stereo not given)", "Potency": "inactive"}
{"compound": "CCN1C(=O)C(CC(=O)Nc2ccc(F)cc2)N(CCc2ccc(OC)cc2)C1=S", "note": "(stereo not given)", "Potency": "inactive"}
{"compound": "CCc1nc2ccc(C(=O)N(C)CCCN(C)C)cn2c1N(C)CCCc1ccccc1", "Potency": "inconclusive [inhibitor, single point]"}
{"compound": "COc1ccc(OCCSc2nnc3sc4ccccc4n23)cc1", "Potency": "inconclusive [inhibitor, single point]"}
{"compound": "CCCc1c(-c2ccc(Cl)cc2)ncn1CCc1ccccc1OC", "Potency": "active: 6.51 µM"}
{"compound": "Cc1nc2ccccc2c(=O)n1N(c1ccccc1)c1ccccc1", "Potency": "inconclusive [inhibitor, partial curve, poor fit]"}
{"compound": "c1ccc(-n2nnnc2-c2cnc(-c3ccncc3)nc2-c2cccs2)cc1", "Potency": "inactive"}
{"compound": "CCOC(=O)c1ccc(Nc2cc(C)nc3ncnn23)cc1", "Potency": "inactive"}
{"compound": "CCOC(=O)c1c(NC(=O)CSc2ncnc3[nH]ncc23)sc2c1CCC(C)C2", "note": "(stereo not given)", "Potency": "inactive"}
{"compound": "Cc1nc2cccnc2n1C1CCN(C(=O)Nc2ccccc2C(F)(F)F)CC1", "Potency": "inactive"}
{"compound": "Cc1cc(C)c(NC(=O)COCc2cc(-c3cccs3)on2)c(C)c1", "Potency": "active: 18.4 µM"}
{"compound": "Clc1ccc(OCCNCCc2ccccc2)cc1", "Potency": "inconclusive [inhibitor, single point]"}
{"compound": "Cc1cc(-c2n[nH]c(=S)n2/N=C/c2cccc(O)c2)n[nH]1", "Potency": "inactive"}
{"compound": "Cc1cc(NC(=O)c2ccccc2NS(=O)(=O)c2c(C)c(C)cc(C)c2C)no1", "Potency": "inconclusive [inhibitor, single point]"}
{"compound": "N#CCSc1nnc(-c2sc3ccccc3c2Cl)o1", "Potency": "inconclusive [inhibitor, single point]"}
{"compound": "CCOC(=O)C1CCCN(CCC(=O)Nc2cc(C)ccc2C)C1", "note": "(stereo not given)", "Potency": "inactive"}
{"compound": "COc1ccc(-c2cn3nc(SCC(=O)Nc4ccccc4F)ccc3n2)cc1", "Potency": "inconclusive [inhibitor, single point]"}
{"compound": "Cc1cccc(NC(=S)N(C)C2CCCCC2)c1", "Potency": "inconclusive [inhibitor, single point]"}
{"compound": "Cc1ccc(N(CC2CO2)S(=O)(=O)c2ccccc2[N+](=O)[O-])cc1", "note": "(stereo not given)", "Potency": "inactive"}
{"compound": "O=C(Cc1cccs1)NCCc1ccc(Cl)cc1", "Potency": "inactive"}
{"compound": "COc1cc(OC)cc(C(=O)N[C@H](C(=O)Nc2nc(-c3ccc(F)c(F)c3)cs2)C(C)C)c1", "Potency": "inconclusive [inhibitor, single point]"}
{"compound": "CN(C)S(=O)(=O)c1cccc(C(=O)C2=C3SC=C(c4ccccc4)N3CC2)c1", "Potency": "inconclusive [inhibitor, single point]"}
{"compound": "COc1ccc(-c2cc(=O)oc3c(O)c(O)ccc23)cc1", "Potency": "inconclusive [inhibitor, single point]"}
{"compound": "Cc1ccc(Nc2cc(=O)n(C)c(=O)[nH]2)cc1C", "Potency": "inconclusive [inhibitor, single point]"}
{"compound": "CCOc1cc(N2CCOCC2)c(OCC)cc1NC(=O)COC(=O)c1ccc(OC)c([N+](=O)[O-])c1", "Potency": "active: 14.6 µM"}
{"compound": "CCn1c(=O)c(CCC(=O)N2CCOCC2)c(C)c2c(C)nn(-c3ccccc3)c21", "Potency": "inconclusive [inhibitor, single point]"}
{"compound": "COC(=O)c1ccc(Sc2ccccc2NS(=O)(=O)c2ccc(C)cc2)nc1", "Potency": "inactive"}
{"compound": "Cc1cc(C(=O)N/N=C/c2ccc(OCc3ccccc3)cc2)c(C)o1", "Potency": "inconclusive [inhibitor, single point]"}
{"compound": "CC(OC(=O)c1cc2sccc2n1C)C(=O)NCCc1ccccc1", "note": "(stereo not given)", "Potency": "active: 14.6 µM"}
{"compound": "O=C(Cc1ccccc1)NCc1ccc(-n2cccc2)cc1", "Potency": "active: 3.26 µM"}
{"compound": "CCOC(=O)c1ccc(NC(=O)Cc2coc3cc4c(cc23)CCC4)cc1", "Potency": "inconclusive [inhibitor, single point]"}
{"compound": "Cc1cccc(OCC(=O)Nc2cccc(C(=O)OCc3cc(=O)n4c(C)csc4n3)c2)c1", "Potency": "inconclusive [inhibitor, single point]"}
{"compound": "O=c1oc(-c2ccccc2)cc(Cl)c1Cl", "Potency": "active: 1.64 µM"}
{"compound": "O=C(Nc1ccccc1)Nc1nc(-c2ccc(Cl)cc2)cs1", "Potency": "inconclusive [inhibitor, partial curve]"}
{"compound": "CSc1cccc(NC(=O)c2[nH]c(C)c(C(C)=O)c2C)c1", "Potency": "inconclusive [inhibitor, partial curve]"}
{"compound": "COc1ccc(S(=O)(=O)N(CC(=O)NCCSc2ccccc2)c2ccc(Cl)cc2)cc1", "Potency": "active: 16.4 µM"}
{"compound": "OCCN1CCN(CC(O)COc2ccc(-c3ccccc3)cc2)CC1", "note": "(stereo not given)", "Potency": "inconclusive [inhibitor, single point]"}
{"compound": "O=C(CN1CCN(S(=O)(=O)c2ccc(Br)cc2)CC1)c1ccc(O)c(O)c1", "Potency": "active: 18.4 µM"}
{"compound": "O=C(COC(=O)C1CC(=O)N(c2ccc3c(c2)OCCO3)C1)Nc1ccc2c(c1)CCC2", "note": "(stereo not given)", "Potency": "inactive"}
{"compound": "Cc1ccc(NC(=O)CCCN2C(=O)/C(=C/C=C/c3ccccc3)SC2=S)cc1", "Potency": "inconclusive [inhibitor, single point]"}
{"compound": "O=C(Sc1nnc(-c2ccccc2)o1)N1c2ccccc2Sc2ccccc21", "Potency": "active: 20.6 µM"}
{"compound": "O=c1c(O)c(-c2cccc(O)c2)oc2ccccc12", "Potency": "inconclusive [inhibitor, single point]"}
{"compound": "O=C(N/N=C/c1cccc2ccccc12)c1ccc(CN2CCOCC2)cc1", "Potency": "inconclusive [inhibitor, single point]"}
{"compound": "COC(=O)[C@@]12CCCN1[C@H](c1ccc(-c3cccc(Cl)c3)c(OC)c1)[C@H]1C(=O)N(C)C(=O)[C@H]12", "Potency": "active: 14.6 µM"}
{"compound": "O=C(OCC(O)CO)c1ccccc1Nc1ccnc2cc(Cl)ccc12", "note": "(stereo not given)", "Potency": "inconclusive [inhibitor, single point]"}
{"compound": "Cc1ccc2c(c1)C(=NC1CCCCC1)c1cc3ccccc3nc1-2", "Potency": "inconclusive [inhibitor, single point]"}
{"compound": "CC(=O)Oc1cc2c(c(C)c1OC(C)=O)CC=C1[C@]3(C)CC[C@]4(C)CC[C@@](C)(C(=O)O)CC4[C@]3(C)CC[C@]12C", "note": "(stereo not given in full)", "Potency": "active: 3.66 µM"}
{"compound": "CCN(CC)C(=O)c1sc2c(c1C)c(=O)n(Cc1ccccc1)c(=O)n2CC(=O)Nc1ccc(OC)cc1", "Potency": "inconclusive [inhibitor, single point]"}
{"compound": "COc1cc2nc(N3CCCN(C)CC3)nc(N(C)C)c2cc1OC", "Potency": "inconclusive [inhibitor, single point]"}
{"compound": "Cc1ccc(N(CC(=O)NC(C)C)C(=O)CCC(=O)Nc2nccs2)cc1C", "Potency": "inactive"}
{"compound": "CCOC(=O)Cn1ccc(NC(=O)c2ccc3c(c2)OCO3)n1", "Potency": "inconclusive [inhibitor, single point]"}
{"compound": "Cc1cc(C)c(NC(=S)NC(NC(=O)c2ccccc2)C(Cl)(Cl)Cl)c(C)c1", "note": "(stereo not given)", "Potency": "inconclusive [inhibitor, single point]"}
{"compound": "CC(=O)Nc1ccc(-c2csc(NC(=O)C3=COCCO3)n2)cc1", "Potency": "inconclusive [inhibitor, partial curve]"}
{"compound": "COC(=O)c1[nH]c2cccc(Cl)c2c1NC(=O)CN1CCCCC1C", "note": "(stereo not given)", "Potency": "inconclusive [inhibitor, single point]"}
{"compound": "Cc1ccccc1CNC(=O)Cc1csc2ccccc12", "Potency": "inconclusive [inhibitor, single point]"}
{"compound": "CCOC(=O)C(C)On1c(-c2ccccc2)nc2ccc([N+](=O)[O-])cc21", "note": "(stereo not given)", "Potency": "inconclusive [inhibitor, partial curve]"}
{"compound": "O=C1C=C(c2ccccc2)C[C@H](c2cccs2)[C@H]1n1cnc([N+](=O)[O-])c1", "Potency": "inconclusive [inhibitor, single point]"}
{"compound": "Cc1ccc(NC(=O)/C(=C\\c2cccc(Br)c2)NC(=O)c2ccco2)cc1", "Potency": "inconclusive [inhibitor, partial curve]"}
{"compound": "CCOC(=O)C1=C(c2ccccc2)NC(=S)NC1c1cc([N+](=O)[O-])ccc1OC", "note": "(stereo not given)", "Potency": "inactive"}
{"compound": "CC(C)C[C@@H](CN)NC(=O)c1nc[nH]c1C(=O)N[C@@H](CC(=O)O)C(=O)CNC[C@H](C)NC(=O)c1nc[nH]c1C(=O)N[C@@H](CC(=O)O)C(=O)O", "Potency": "inactive"}
